Reference: paper PMC6054203
These are yes or no findings as the source states them, for the method shown. For some assays here: Binding seen in cells or lysates may run through a third protein. Some binding calls cover weakened binding; strength is not graded here. Sequences can lack the tags named with a protein. Blank lines part the entries; values can stand above or below the binder they belong to.

Experiments:
[1] = target: T1, GST-CIPK9 (Arabidopsis thaliana) (UniProt Q9MAM1); test: pull-down; Glutathione-sepharose 4B-bound GST-fused protein (approximately 1 ug) incubated with bacterial soluble lysate expressing the 6X-His fusion protein for 4 h at 4 °C; washed six times with phosphate buffer saline; anti-His immunoblot; only the target purified
T1 sequence: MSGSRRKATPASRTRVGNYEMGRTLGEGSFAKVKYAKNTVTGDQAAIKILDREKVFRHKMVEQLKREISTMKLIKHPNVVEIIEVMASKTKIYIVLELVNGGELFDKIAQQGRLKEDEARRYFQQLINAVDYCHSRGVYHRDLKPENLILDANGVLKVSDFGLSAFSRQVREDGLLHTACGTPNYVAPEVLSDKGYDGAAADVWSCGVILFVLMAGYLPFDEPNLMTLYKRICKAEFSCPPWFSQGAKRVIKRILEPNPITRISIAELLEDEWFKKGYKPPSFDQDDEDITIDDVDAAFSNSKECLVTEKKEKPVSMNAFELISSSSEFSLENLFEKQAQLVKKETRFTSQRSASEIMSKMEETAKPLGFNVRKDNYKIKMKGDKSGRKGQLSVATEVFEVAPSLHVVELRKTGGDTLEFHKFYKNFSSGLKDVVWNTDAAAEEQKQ

[2] = target: T2, CIPK9 fused to the N-terminal fragment of YFP (Arabidopsis thaliana) (UniProt Q9MAM1); test: split reporter; BiFC with YFPc and YFPn fusions (pSPYCE-35S^GW, pSPYNE-35S^GW) co-infiltrated in N. benthamiana cells, confocal microscopy
T2 sequence: T1 sequence

[3] = target: T3, YFP-CIPK9 (Arabidopsis thaliana) (UniProt Q9MAM1); test: FRET or BRET; FRET by acceptor bleaching, CFP and YFP fusions co-expressed in N. benthamiana cells, confocal microscopy; at least seven cells
T3 sequence: T1 sequence

[4] = target: T4, AP2C1 (protein phosphatase 2C), two-hybrid fusion (Arabidopsis thaliana) (UniProt O80871); test: two-hybrid; yeast strain AH109 co-transformed with AD (pGAD.GH) and BD (pGBT9.BS) fusions; growth on SC-LWH and on SC-LWH with 0.5 and 3.0 mM 3-AT
T4 sequence: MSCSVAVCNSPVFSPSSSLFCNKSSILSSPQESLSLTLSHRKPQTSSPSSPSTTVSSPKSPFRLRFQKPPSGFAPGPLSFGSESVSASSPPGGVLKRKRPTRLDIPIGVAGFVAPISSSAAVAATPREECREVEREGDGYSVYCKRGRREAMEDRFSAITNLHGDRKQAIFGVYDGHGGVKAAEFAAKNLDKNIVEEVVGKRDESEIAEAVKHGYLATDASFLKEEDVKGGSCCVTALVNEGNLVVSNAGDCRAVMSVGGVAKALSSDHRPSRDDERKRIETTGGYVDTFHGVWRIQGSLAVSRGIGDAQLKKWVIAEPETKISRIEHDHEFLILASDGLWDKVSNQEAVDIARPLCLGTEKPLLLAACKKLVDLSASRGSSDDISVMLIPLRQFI

[5] = target: T5, CBL-interacting protein kinase 9 (CIPK9), two-hybrid fusion (Arabidopsis thaliana) (UniProt Q9MAM1); test: as above
T5 sequence: T1 sequence

B1: His-AP2C1 (enzyme, UniProt O80871 1-396)
chain: T4 sequence
binding [1]: binds

B2: AP2C1 fused to the C-terminal fragment of YFP (enzyme, UniProt O80871 1-396)
chain: T4 sequence
binding [2]: binds

B4: CBL-interacting protein kinase 9 (CIPK9), two-hybrid fusion (enzyme, UniProt Q9MAM1 1-447)
chain: T1 sequence
binding [4]: binds

Continued, values first:

binding [3]: binds
B3: AP2C1 fused to cyan fluorescent protein (enzyme, UniProt O80871 1-396)
chain: T4 sequence

binding [5]: no binding
B5: AIP1 (PP2C, homolog of AP2C1), two-hybrid fusion (enzyme, UniProt Q9LNW3 1-442)
chain: MADICYEDETSACESRPLWSSRKWRIGVQRFRMSPSEMNPTASTTEEEDKSEGIYNKRNKQEEYDFMNCASSSPSQSSPEEESVSLEDSDVSISDGNSSVNDVAVIPSKKTVKETDLRPRYGVASVCGRRRDMEDAVALHPSFVRKQTEFSRTRWHYFGVYDGHGCSHVAARCKERLHELVQEEALSDKKEEWKKMMERSFTRMDKEVVRWGETVMSANCRCELQTPDCDAVGSTAVVSVITPEKIIVANCGDSRAVLCRNGKAVPLSTDHKPDRPDELDRIQEAGGRVIYWDGARVLGVLAMSRAIGDNYLKPYVTSEPEVTVTDRTEEDEFLILATDGLWDVVTNEAACTMVRMCLNRKSGRGRRRGETQTPGRRSEEEGKEEEEKVVGSRKNGKRGEITDKACTEASVLLTKLALAKHSSDNVSVVVIDLRRRRKRHVA
